Out of some 52,000 compounds screened, about 4,300 (8.3%) were called active. Rule as the data show it: active = survival mostly below about 52% (no sharp cut-off); inactive = mostly above about 56%. The list shows a part of the results.
system: DeltatarO mutant; assay: S. aureus survival, RN4220 and DeltatarO strains – OD600, teichoic acid synthesis inhibitors, primary screen (AID 463173); details: S. aureus RN4220 wild type/DeltatarO growth, OD600, 18 h, hits give low values, screened at 18.75 µg/mL (by protocol)

| SMILES | survival |
| --- | --- |
| CCc1ccc(NC(=O)CN2CCN(C3CCCCC3)C(=O)C2=O)cc1 | inactive: 91% |
| Cc1ccc(/C=C(\C#N)C(=O)Nc2ccc(Br)cc2)o1 | inactive: 76% |
| Cn1nnnc1SCCCNCc1cccc(OCc2ccccc2F)c1 | inactive: 60% |
| O=C(Nc1c(C(=O)c2ccc(Cl)cc2)oc2ccccc12)c1cc(=O)c2ccccc2o1 | inactive: 107% |
| Clc1ccc(Nc2nc(-c3ccccc3)c3ccccc3n2)c(Cl)c1 | inactive: 72% |
| COc1ccccc1C(=O)Nc1cccc(OCc2cc(=O)n3c(C)csc3n2)c1 | active: 44% |
| O=S(=O)(c1cc(Br)c(Br)s1)N1CCN(c2ccccc2)CC1 | inactive: 72% |
| O=c1[nH]c(-c2ccccc2)nn1-c1ccc(Br)cc1Br | inactive: 102% |
| Cc1ccc(S(=O)(=O)c2nnn3c2nc(NCc2ccccc2)c2sccc23)cc1 | inactive: 68% |
| Cc1ccccc1CN1C(=O)c2ccccc2Sc2ccc(C(=O)O)cc21 | inactive: 112% |
| CCOc1ccc(NC(=O)CCc2nc3cccnc3n2Cc2ccc(OC)cc2)cc1 | inactive: 64% |
| Cc1ccc(CS(=O)Cc2ccc(C(=O)NCc3ccccc3Cl)o2)cc1 (configuration not stated) | inactive: 84% |
| Cc1ccc(NC(=O)C2CCCN(c3cnccn3)C2)cc1Cl (configuration not stated) | inactive: 75% |
| Nc1nnc(SCC(=O)Nc2cccc(F)c2)s1 | inactive: 195% |
| Cc1ccc(N(CC(=O)NC2CCCC2)C(=O)c2ccc(N3CCCC3)nc2)cc1 | inactive: 89% |
| Cc1cccc(NC(=O)C2CCN(S(=O)(=O)c3ccc4[nH]c5c(c4c3)CCCCC5)CC2)c1 | inactive: 78% |
| Cc1cc(C)cc(NC(=O)Cn2cc(C(=O)c3ccncc3)c(=O)c3cc(C)c(C)cc32)c1 | inactive: 86% |
| CCc1cccc(C)c1NC(=O)C1CCN(c2nnc(C)c3c(C)n(-c4ccccc4)nc23)CC1 | inactive: 77% |
| C=CCNCc1cccn1-c1ccccc1 | inactive: 76% |
| CCOC(=O)C(C)C1(O)c2ccccc2-c2ncccc21 (configuration not stated) | inactive: 77% |
| COc1ccc(CNC(=O)C2CCN(S(=O)(=O)c3ccc4nc5c(c(C(=O)O)c4c3)CCCC5)CC2)cc1 | inactive: 99% |
| COc1cccc(NC(=O)CCSc2nc(-c3ccco3)cc(C(F)(F)F)n2)c1 | active: 27% |
| COc1ccc(-c2noc(N3CCN(c4ccc(Cl)cc4)CC3)n2)cc1OC | inactive: 80% |

| SMILES | survival |
| --- | --- |
| CCc1nn2c(=O)cc(COC(=O)c3cccc(NC(=O)COc4ccccc4)c3)nc2s1 | inactive: 83% |
| CCOc1ccc(CCNC(=O)c2cc3cc4cc(OC)ccc4nc3s2)cc1OCC | inactive: 107% |
| CCOc1ccccc1NC(=O)C(=O)c1cc(C)n(-c2cccc(C)c2C)c1C | inactive: 68% |
| Cc1cccc(NC(=O)CCN2CCC(C)CC2)c1 | inactive: 91% |
| COc1ccccc1NC(=O)C1=C(C)Nc2nc(SCc3ccccc3F)nn2C1c1ccncc1 (configuration not stated) | inactive: 153% |
| CC(C)Cc1nn2c(=O)cc(COC(=O)c3ccccc3NC(=O)c3cccs3)nc2s1 | inactive: 67% |
| COc1ccc(OC)c(CNC(=O)c2cc(S(=O)(=O)N3CCC(C)CC3)cn2C)c1 | inactive: 73% |
| CN(c1ccccc1)S(=O)(=O)c1nnc(NC(=O)c2ccco2)s1 | inactive: 47% |
| Cc1ccccc1NC(=O)c1cc2sccc2n1Cc1ccc(F)cc1 | inactive: 88% |
| CCOc1ccc(-c2c(C)nn3c(C)c(C(=O)Nc4cccc(Cl)c4C)cnc23)cc1OCC | inactive: 76% |
| COCCN1Cc2cccc(C(=O)Nc3ccc(C(=O)OC)cc3)c2C1=O | inactive: 82% |
| Cc1ccc(NC(=O)c2cc(S(=O)(=O)N3CCC(C)CC3)cn2C)cc1Cl | inactive: 80% |
| Cc1cc2cc(CCNS(=O)(=O)c3ccc(Br)cc3)c(=O)[nH]c2cc1C | inactive: 48% |
| COc1ccccc1C(=O)Nc1ccc2nc(SCC(=O)N3CCCC3)sc2c1 | inactive: 88% |
| CCCCc1cc(O)c(CCCC)c(O)c1 | active: 12% |
| COCCNC(=O)CCCn1c(SCC(=O)c2ccc(F)cc2)nc2c(sc3ccccc32)c1=O | inactive: 85% |
| Cc1ccc(NC(=O)/C(C#N)=C\c2ccc(-c3ccc(Cl)cc3)o2)c(C)c1 | inactive: 77% |
| COc1cc(/C=N/NC(=O)c2cccc(N3CCCC3=O)c2)ccc1O | inactive: 92% |
| COc1cc2oc(=O)c(CC(=O)NCCc3ccccc3)c(C)c2cc1Cl | inactive: 78% |
| CCOC(=O)CCn1c(=O)c2cccn2c2cccnc21 | inactive: 90% |
| CSc1nn(Cc2ccccc2C)c(NC(C)=O)c1S(=O)(=O)c1ccc(C)cc1 | inactive: 75% |
| COc1ccc(NC(=O)CCc2nc3c(C)nn(-c4ccc(C)cc4)c3n(C)c2=O)c(OC)c1 | inactive: 77% |
| CCc1ccc(CN(C(=O)c2ccc(OC)cc2)C2CCS(=O)(=O)C2)cc1 (configuration not stated) | inactive: 79% |

| SMILES | survival |
| --- | --- |
| CCOC(=O)c1ccc(NC(=O)CC2Nc3cccc4cccc(c34)NC2=O)cc1 (configuration not stated) | active: 28% |
| Cc1noc(C)c1S(=O)(=O)Nc1ccc(C(=O)Nc2ccc(C(C)C)cc2)cc1 | active: 52% |
| COc1ccc(-c2onc(C)c2C)cc1S(=O)(=O)N1CCc2ccccc21 | active: 6% |
| O=C1CCC(=O)N1CC(O)CCOc1ccc(OCCC(O)CN2C(=O)CCC2=O)cc1 (configuration not stated) | inactive: 74% |
| Cc1cc(Br)cc(C)c1NC(=O)c1cnc2ccccn2c1=O | inactive: 106% |
| Cn1c2c(c(=O)n(C)c1=O)C(c1cccc(O)c1)CC(=O)N2 (configuration not stated) | inactive: 99% |
| Cn1c(-c2ccccc2)cnc1SCc1ccccc1 | inactive: 108% |
| COc1cccc(NS(=O)(=O)c2ccc3[nH]c4c(c3c2)CCCCCC4)c1 | inactive: 72% |
| S=c1[nH]nc(NCCc2ccccc2)s1 | inactive: 84% |
| Cc1ccc2nc(N(Cc3cccnc3)C(=O)c3ccco3)sc2c1 | inactive: 91% |
| COc1ccc(-c2c(C)c3ccc(O)c(CN4CCCCC4)c3oc2=O)cc1OC | inactive: 84% |
| CN1CCN(C(=S)NCC2CCCO2)CC1 (configuration not stated) | inactive: 64% |
| CCOC(=O)c1c(NC(=O)CCCOc2ccc(C)cc2)sc2c1CCC(C)C2 (configuration not stated) | active: 10% |
| CCc1ccc(-n2c(SCc3nc(-c4cc(OC)ccc4OC)no3)nnc2-c2ccccc2)cc1 | inactive: 70% |
| CCOC(=O)Cn1c(=O)n(-c2ccccc2OC)c2nc(-c3ccccc3)nc(C(N)=O)c21 | active: -1% |
| CCc1nnc(SCC(=O)Nc2ccc(Cl)cc2F)c2cc3occc3n12 | inactive: 58% |
| CCc1ccc(CNC(=O)c2ccc(CS(=O)c3ccc(Br)cc3)o2)cc1 (configuration not stated) | inactive: 108% |
| Cc1cccc(N2CCN(C(=O)c3cn(C)c4ccc(S(=O)(=O)N(C)C)cc4c3=O)CC2C)c1 (configuration not stated) | inactive: 84% |
| CCn1c(C(=O)NCc2ccc(C)cc2)cc2sc(Cl)cc21 | inactive: 92% |
| COc1ccc(-c2nc3ccccc3s2)cc1NC(=O)c1ccc(C#N)cc1F | inactive: 168% |
| COc1cc2c3c(c1)C1(C(=O)N3C(C)(C)C=C2C)C(C#N)=C(N)NC(=O)C1C(N)=O (configuration not stated) | inactive: 86% |
| COc1cc2c(cc1NC(=O)COc1ccc(Br)c(C)c1)oc1ccccc12 | inactive: 49% |
| CCC12CN3CC(CC)(CN(C1)C3c1cccc(OC)c1O)C2=O (configuration not stated) | inactive: 88% |

| SMILES | survival |
| --- | --- |
| CC(C)c1ccc(NC(=O)CSc2ncnc3c2sc2ccccc23)cc1 | inactive: 70% |
| COc1ccccc1CNCc1ccc(C(=O)O)s1 | inactive: 105% |
| O=S(=O)(Nc1ccccc1-c1ccccc1)c1cccs1 | inactive: 107% |
| Clc1cccc(CSc2nc(NCCc3ccccc3)c3ccccc3n2)c1 | inactive: 102% |
| CC(C)c1ccc(NC(=O)c2ccc3oc(=O)c(S(=O)(=O)c4ccc(F)cc4)cc3c2)cc1 | inactive: 86% |
| COc1cn(CC(=O)Nc2c(C)cc(C)cc2C)c(CN2CCCCC2)cc1=O | inactive: 98% |
| CS(=O)(=O)N(CC(=O)N1CCCCC1)c1sc2c(c1C#N)CCCC2 | inactive: 103% |
| CCOc1ccc(S(=O)(=O)NCCc2csc3nc(-c4ccc(OC)c(OC)c4)nn23)cc1 | inactive: 89% |
| CCN(CC)c1ccc(NC(=O)CN(C)S(=O)(=O)c2cccc3nsnc23)c(C)c1 | inactive: 128% |
| CCOc1ccc(C2C(=O)N(C3CCCCCC3)CC(=O)N2Cc2ccc(F)cc2)cc1OC (configuration not stated) | inactive: 117% |
| CCN(CC)c1ccc(C(=O)NCc2ccc3c(c2)CCN3C(=O)c2cccc(C)c2)cc1 | inactive: 102% |
| CCOc1ccc(CCNC(=O)C(CC(C)C)N2Cc3ccccc3C2=O)cc1OCC (configuration not stated) | inactive: 89% |
| CCOc1ccccc1NC(=O)Nc1ccc2nc(N3CCN(C)CC3)cc(C)c2c1 | inactive: 75% |
| COc1c(C)cccc1C(=O)Nc1ccc(Cl)c(-c2nc3cc(C)ccc3o2)c1 | active: 6% |
| COc1ccc(C(=O)Nc2ccc(N3CCN(c4ccccc4)CC3)c(C(=O)O)c2)cc1 | inactive: 94% |
| COc1ccc(-c2nc3sc(CCNC(=O)Cc4ccc(Cl)cc4)c(C)n3n2)cc1 | inactive: 62% |
| CCOc1ccc(CCNC(=O)CSc2nc3ccccc3nc2Cc2ccc(C)cc2)cc1OCC | inactive: 112% |
| CC(C)CCOc1ccc(Cn2c(=O)sc3ccccc32)cc1 | active: 0% |
| CCCc1oc2ccc(NS(=O)(=O)c3ccc(OCC)cc3)cc2c1C(=O)OCC | inactive: 65% |
| CNc1nc(SCc2ccccc2)nc(N2CCOCC2)n1 | inactive: 69% |
| COC(=O)CC(=O)CSc1nc2cc(C(=O)NC(C)C)ccc2c(=O)n1CCc1ccccc1 | inactive: 94% |
| O=C(Cc1ccc(-c2ccccc2)cc1)NCCS(=O)(=O)N1CCN(c2cccc(Cl)c2)CC1 | inactive: 74% |
| COc1ccc(Nc2ncnc3c2cnn3-c2cc(Cl)ccc2C)cc1OC | inactive: 92% |
